Target: Voltage-gated inwardly rectifying potassium channel KCNH2 (Homo sapiens, UniProt Q12809)
Conditions: Potency; call rule not given here
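Also: confirmatory quantitative high-throughput screen measuring inhibition of hERG channel activity.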

Sequence of Voltage-gated inwardly rectifying potassium channel KCNH2 (Q12809 whole entry): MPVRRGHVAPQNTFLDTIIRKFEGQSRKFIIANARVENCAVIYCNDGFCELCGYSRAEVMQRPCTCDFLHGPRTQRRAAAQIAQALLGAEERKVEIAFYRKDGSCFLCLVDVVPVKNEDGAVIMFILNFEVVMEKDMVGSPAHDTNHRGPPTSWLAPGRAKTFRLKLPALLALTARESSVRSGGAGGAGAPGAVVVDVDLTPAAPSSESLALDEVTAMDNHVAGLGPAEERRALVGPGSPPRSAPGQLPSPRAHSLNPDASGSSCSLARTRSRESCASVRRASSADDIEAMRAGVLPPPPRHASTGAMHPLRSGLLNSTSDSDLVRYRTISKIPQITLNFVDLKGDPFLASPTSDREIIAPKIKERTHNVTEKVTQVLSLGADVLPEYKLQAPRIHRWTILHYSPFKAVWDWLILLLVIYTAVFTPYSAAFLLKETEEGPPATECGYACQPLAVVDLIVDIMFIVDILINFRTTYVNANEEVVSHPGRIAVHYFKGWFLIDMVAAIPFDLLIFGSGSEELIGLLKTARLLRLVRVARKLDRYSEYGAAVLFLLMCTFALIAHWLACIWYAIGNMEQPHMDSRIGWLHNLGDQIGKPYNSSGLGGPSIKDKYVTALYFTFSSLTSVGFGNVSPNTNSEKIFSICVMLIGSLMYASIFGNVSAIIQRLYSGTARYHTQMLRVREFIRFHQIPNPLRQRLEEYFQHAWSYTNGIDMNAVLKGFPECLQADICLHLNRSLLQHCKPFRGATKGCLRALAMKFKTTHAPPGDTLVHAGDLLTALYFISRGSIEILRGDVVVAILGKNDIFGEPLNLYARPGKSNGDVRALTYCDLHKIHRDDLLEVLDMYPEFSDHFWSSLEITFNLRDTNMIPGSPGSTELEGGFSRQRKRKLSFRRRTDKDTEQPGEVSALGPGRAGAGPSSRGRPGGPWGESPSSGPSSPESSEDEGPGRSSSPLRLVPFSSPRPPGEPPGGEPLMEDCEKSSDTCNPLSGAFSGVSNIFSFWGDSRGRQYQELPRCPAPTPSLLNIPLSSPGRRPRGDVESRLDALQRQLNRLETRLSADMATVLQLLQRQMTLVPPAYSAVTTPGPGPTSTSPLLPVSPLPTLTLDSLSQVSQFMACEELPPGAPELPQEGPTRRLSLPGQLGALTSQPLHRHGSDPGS

CCCCCCCCCCCCCCCC[n+]1ccccc1
AC50: inconclusive: 20 µM
